Hit rate of the full screen: of about 310,000 compounds, about 14,000 (4.5%) showed an effect of 50% or more. The effect is printed as a negative number. Some of the results follow.
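Further: peak tail current of the secondary pulse compared with the same well before compound.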

In the assay the target is human ether-à-go-go-related gene (hERG) potassium channel (human, UniProt Q12809). Kind of assay: primary screen, population patch clamp on CHO cells stably expressing hERG.
human ether-à-go-go-related gene (hERG) potassium channel, sequence (Q12809 whole entry, looked up): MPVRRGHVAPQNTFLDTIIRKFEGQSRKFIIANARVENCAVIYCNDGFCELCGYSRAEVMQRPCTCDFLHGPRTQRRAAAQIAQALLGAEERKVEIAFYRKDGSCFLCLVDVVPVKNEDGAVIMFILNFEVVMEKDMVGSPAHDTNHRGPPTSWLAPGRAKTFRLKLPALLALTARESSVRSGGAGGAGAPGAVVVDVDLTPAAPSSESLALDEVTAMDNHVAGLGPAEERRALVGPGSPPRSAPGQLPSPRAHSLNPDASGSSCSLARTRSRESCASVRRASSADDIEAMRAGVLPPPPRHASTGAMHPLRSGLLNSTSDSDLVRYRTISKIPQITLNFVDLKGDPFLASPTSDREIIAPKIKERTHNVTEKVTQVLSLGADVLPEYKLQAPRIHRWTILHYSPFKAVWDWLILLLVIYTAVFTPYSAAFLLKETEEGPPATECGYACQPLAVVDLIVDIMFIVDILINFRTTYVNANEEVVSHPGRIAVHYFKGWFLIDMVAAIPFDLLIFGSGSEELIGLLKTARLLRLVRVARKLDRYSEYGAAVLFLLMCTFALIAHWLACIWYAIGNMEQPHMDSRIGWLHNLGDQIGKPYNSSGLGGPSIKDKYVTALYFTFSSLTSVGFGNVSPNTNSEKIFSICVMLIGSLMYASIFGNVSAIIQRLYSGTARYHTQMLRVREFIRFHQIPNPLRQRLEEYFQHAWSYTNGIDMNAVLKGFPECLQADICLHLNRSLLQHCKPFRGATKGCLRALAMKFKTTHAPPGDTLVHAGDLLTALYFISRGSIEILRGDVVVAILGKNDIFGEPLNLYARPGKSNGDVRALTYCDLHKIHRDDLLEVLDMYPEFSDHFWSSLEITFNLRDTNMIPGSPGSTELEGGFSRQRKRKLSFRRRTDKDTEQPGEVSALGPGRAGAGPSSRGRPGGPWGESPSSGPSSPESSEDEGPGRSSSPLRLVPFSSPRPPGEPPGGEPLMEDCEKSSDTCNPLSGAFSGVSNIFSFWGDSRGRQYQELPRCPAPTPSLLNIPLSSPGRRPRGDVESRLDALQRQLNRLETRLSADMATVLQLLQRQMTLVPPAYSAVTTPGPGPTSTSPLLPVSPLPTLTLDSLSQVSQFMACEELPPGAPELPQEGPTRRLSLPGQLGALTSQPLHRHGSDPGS
In the case of `O=C(CCc1nnc(COc2ccccc2)o1)NCCc1cccs1`, the “hERG current change (%, negative = inhibition) at 10uM” value turned out to be 16.2%.

Turning to `COc1ccc(NC(=O)c2ccc(NC(=O)COC(=O)CC(NC(=O)c3ccccc3Cl)c3ccccc3)cc2)cc1` (stereo not drawn), the “hERG current change (%, negative = inhibition) at 10uM” value is given as -2.55%.

Turning to `COc1cccc(C2/C(=C(\O)c3ccc4c(c3)OCCO4)C(=O)C(=O)N2CCCn2ccnc2)c1` (stereo not drawn), the “hERG current change (%, negative = inhibition) at 10uM” value was 2.41%.

Consider `COc1ccc(CN2CCNCC2)c(OC)c1OC`, for which the “hERG current change (%, negative = inhibition) at 10uM” value was 9.67%.

Consider `O=C(O)CCC(=O)N1CN2CN(C(=O)CCC(=O)O)CC([N+](=O)[O-])(C2)C1`, for which the “hERG current change (%, negative = inhibition) at 10uM” value came to 14.8%.

Take `COc1ccc(NS(=O)(=O)c2cc(NC(=O)Cn3cnc4c3c(=O)n(C)c(=O)n4C)ccc2C)cc1`: the “hERG current change (%, negative = inhibition) at 10uM” value is recorded as -10.5%.

As to `CC1=C(C(=O)OCc2ccc3c(c2)OCO3)C(c2ccc(O)c([N+](=O)[O-])c2)NC(=O)N1` (stereo not drawn), the “hERG current change (%, negative = inhibition) at 10uM” value came out at 8.45%.

For the molecule `O=C(NCc1ccco1)C(=O)NCC1OCCCN1S(=O)(=O)c1ccccc1` (stereo not drawn), the “hERG current change (%, negative = inhibition) at 10uM” value stood at 17.4%.

For the molecule `Nc1c(-c2ccc(Cl)cc2)cnn1-c1cccc([N+](=O)[O-])c1`, the “hERG current change (%, negative = inhibition) at 10uM” value was 5.91%.

Consider `O=[N+]([O-])c1cc(-c2cnc3ccccc3n2)ccc1Cl`, for which the “hERG current change (%, negative = inhibition) at 10uM” value was 0.838%.

As to `CCCSc1nc(O)c(CC)c(=O)n1C(C)CC` (stereo not drawn), the “hERG current change (%, negative = inhibition) at 10uM” value was -0.121%.

With `Clc1ccc(CN2CCN(c3ncccn3)CC2)cc1`, the “hERG current change (%, negative = inhibition) at 10uM” value is listed as -4.03%.

`O=C(Nc1ccccc1)C1CCN(C(=O)c2ccco2)CC1`: the “hERG current change (%, negative = inhibition) at 10uM” value was found to be 7.85%.

As for `CCOc1cc(C2NC(=O)c3ccccc3O2)ccc1OC(C)C` (stereo not drawn), the “hERG current change (%, negative = inhibition) at 10uM” value amounted to 10.1%.

Turning to `FC(F)(F)c1cnc(N2CCN(C(=S)NCc3ccccc3)CC2)c(Cl)c1`, the “hERG current change (%, negative = inhibition) at 10uM” value is on record as -11.3%.

Turning to `CC1=NN(c2nc(-c3ccc(C)cc3)cs2)C(=O)C1N=Nc1cccc(O)c1` (stereo not drawn), the “hERG current change (%, negative = inhibition) at 10uM” value is given as 7.93%.

As to `COC(=O)c1ccc(OCCn2cnc3ccccc3c2=O)cc1`, the “hERG current change (%, negative = inhibition) at 10uM” value was -11.2%.

For `FC(F)(F)c1cc(Nc2ccccc2)nc(-c2ccccn2)n1`, the “hERG current change (%, negative = inhibition) at 10uM” value is 12.2%.

For `NC(=O)c1oc2ccccc2c1NC(=O)CS(=O)(=O)c1ccccc1`, the “hERG current change (%, negative = inhibition) at 10uM” value is given as 6.49%.

As to `Cc1ccc(NC(=O)CSc2nc(NS(=O)(=O)c3ccccc3)cc(=O)[nH]2)cc1`, the “hERG current change (%, negative = inhibition) at 10uM” value is given as 8.75%.

Turning to `C/C(=N/Nc1ccnc2cc(Cl)ccc12)c1ccc(O)cc1`, the “hERG current change (%, negative = inhibition) at 10uM” value is given as -6.2%.

As to `CCCc1nc2c(ccc3ccccc32)cc1CC`, the “hERG current change (%, negative = inhibition) at 10uM” value is on record as 7.5%.

Turning to `COc1ccc(-c2csc(C3=C(O)CN(Cc4ccc(S(N)(=O)=O)cc4)C3=N)n2)cc1OC`, the “hERG current change (%, negative = inhibition) at 10uM” value is -10.7%.

Take `C=CCNC(=O)COC(=O)c1ccc(Cl)c(S(=O)(=O)N(Cc2ccccc2)c2ccccc2)c1`: the “hERG current change (%, negative = inhibition) at 10uM” value was -0.708%.

In the case of `CCOc1ccc(NC(=O)c2ccc(NC(=O)COC(=O)Cc3ccc(OC)cc3)cc2)cc1`, the “hERG current change (%, negative = inhibition) at 10uM” value came out at 20%.

Turning to `COc1ccccc1C(CNC(=O)CCNC(=O)c1ccccc1Cl)N1CCCC1` (stereo not drawn), the “hERG current change (%, negative = inhibition) at 10uM” value is given as -6.32%.

Take `Cc1ccc(-c2nc3cc(N)ccc3o2)c(C)c1`: the “hERG current change (%, negative = inhibition) at 10uM” value is 11.6%.

Regarding `COc1ccc(C(c2c(O)cc(C)oc2=O)c2c(O)cc(C)oc2=O)cc1`, the “hERG current change (%, negative = inhibition) at 10uM” value is 4.88%.

On to `CC1Oc2ccccc2N(Cc2ccccc2F)C1=O` (stereo not drawn), for which the “hERG current change (%, negative = inhibition) at 10uM” value is -9.36%.

Consider `CC(C)N1CC(C(=O)Nc2ccc(Cl)c([N+](=O)[O-])c2)CC1=O` (stereo not drawn), for which the “hERG current change (%, negative = inhibition) at 10uM” value came out at 7.99%.

Consider `Cc1ccccc1OCC(=O)NCCNC(=O)c1ccncc1`, for which the “hERG current change (%, negative = inhibition) at 10uM” value is on record as 8.43%.

Consider `O=C(C1CC1)N1CCc2cc(S(=O)(=O)N3CCN(c4ccccc4)CC3)ccc21`, for which the “hERG current change (%, negative = inhibition) at 10uM” value is recorded as 15.8%.

In the case of `COc1ccccc1NC(=O)C(C)OC(=O)C1COc2ccccc2O1` (stereo not drawn), the “hERG current change (%, negative = inhibition) at 10uM” value is reported as 3.67%.

In the case of `O=C(NCc1cccc(Cl)c1)c1cccc(S(=O)(=O)N2CCCC2)c1`, the “hERG current change (%, negative = inhibition) at 10uM” value is recorded as -15.3%.

Take `OCc1ccnc2oc3ccccc3c12`: the “hERG current change (%, negative = inhibition) at 10uM” value was 9.87%.

For `C=CC(C)n1c(Br)nc2c1c(=O)[nH]c(=O)n2C` (stereo not drawn), the “hERG current change (%, negative = inhibition) at 10uM” value is reported as -8.53%.

For `O=C(CCCN1C(=O)c2ccccc2C1=O)N1CCN(c2ccccn2)CC1`, the “hERG current change (%, negative = inhibition) at 10uM” value is -25.9%.

With `O=C1OCCC1Sc1nc2cc(Cl)ccc2n1Cc1ccccc1` (stereo not drawn), the “hERG current change (%, negative = inhibition) at 10uM” value is reported as -63.9%.

For `COCCNC(=O)/C(C#N)=c1\s/c(=C\c2ccccc2OC(F)F)c(=O)n1Cc1ccccc1`, the “hERG current change (%, negative = inhibition) at 10uM” value turned out to be 11.8%.

Take `Cc1ccc(OCCC(=O)OCC(=O)Nc2ccc(F)cc2)cc1`: the “hERG current change (%, negative = inhibition) at 10uM” value was 20.2%.

In the case of `Cc1cc(C)c2[nH]c(=O)c(C(c3nnnn3C(C)(C)C)N3CCN(C(=O)c4ccco4)CC3)cc2c1` (stereo not drawn), the “hERG current change (%, negative = inhibition) at 10uM” value was -47%.

As for `Clc1ccc(-c2ccccc2)nn1`, the “hERG current change (%, negative = inhibition) at 10uM” value came to 3.33%.

For `O=[N+]([O-])c1ccc(O)c(/C=N/Nc2ccc(Cl)nn2)c1`, the “hERG current change (%, negative = inhibition) at 10uM” value came to 20.2%.

Consider `CN(C(=O)COC(=O)CSc1ccc(C(N)=O)cc1[N+](=O)[O-])C1CCCCC1`, for which the “hERG current change (%, negative = inhibition) at 10uM” value is reported as -4.6%.

Consider `CN(C)CCNC(=O)COc1cccc2c1OC(C)(C)C2`, for which the “hERG current change (%, negative = inhibition) at 10uM” value is 59.4%.

On to `COc1ccc(C2Nc3ccccc3C(=O)N2c2ccc(Cl)cc2)cc1Cn1cc([N+](=O)[O-])cn1` (stereo not drawn), for which the “hERG current change (%, negative = inhibition) at 10uM” value was -11.1%.

Take `Cc1ccc(C(=O)NCCCn2ccnc2)cc1C`: the “hERG current change (%, negative = inhibition) at 10uM” value came to 8.83%.

For the molecule `CCOCCn1c(CN2CCN(c3cccc(Cl)c3)CC2)nc2c1c(=O)n(C)c(=O)n2C`, the “hERG current change (%, negative = inhibition) at 10uM” value is recorded as -55%.

Turning to `CCOc1ccccc1N1CC(C(=O)NCCOc2ccccc2OC)CC1=O` (stereo not drawn), the “hERG current change (%, negative = inhibition) at 10uM” value is on record as -6.01%.

`COc1ccc(Nc2nc(N)c([N+](=O)[O-])c(N3CCCC3)n2)cc1`: the “hERG current change (%, negative = inhibition) at 10uM” value is given as -22.8%.

As to `Cc1ccc(S(=O)c2ccc(NC(=O)C3CC3)cc2C#N)cc1` (stereo not drawn), the “hERG current change (%, negative = inhibition) at 10uM” value was -20.9%.

Consider `CC(C)n1c(=N)c(C(=O)NCCc2ccccc2)cc2c(=O)n3ccccc3nc21`, for which the “hERG current change (%, negative = inhibition) at 10uM” value is -75.1%.

As to `O=C(CSc1nnc(Cn2c(=O)sc3ccccc32)n1-c1ccccc1)Nc1nccs1`, the “hERG current change (%, negative = inhibition) at 10uM” value is given as -3.47%.

Take `Cc1ccc(N(C)S(=O)(=O)c2ccc3[nH]cc(C(=O)NCCCN4CCOCC4)c(=O)c3c2)cc1C`: the “hERG current change (%, negative = inhibition) at 10uM” value is -16.5%.

The values above are taken from paper PMC4336329 (PLoS ONE, 2015).
